The list shows a part of the results. The full chains were built here from the parent and the listed change. Values near 0.05 are background.
B1: TEV protease; numbered along this chain (parent)
chain: MGESLFKGPRDYNPISSSICHLTNESDGHTTSLYGIGFGPFIITNKHLFRRNNGTLVVQSLHGVFKVKDTTTLQQHLVDGRDMIIIRMPKDFPPFPQKLKFREPQREERICLVTTNFQTKSMSSMVSDTSCTFPSGDGIFWKHWIQTKDGQCGSPLVSTRDGFIVGIHSASNFTNTNNYFTSVPKNFMELLTNQEAQQWVSGWRLNADSVLWGGHKVFMVKPEEPFQPVKEATQL

Variants of: B1
Assay: raw area under fraction-flipped curve 0-4 h after induction (AUC4h, not background-subtracted), DNA-recorder readout of cleavage of the substrate (dimensionless); higher = more cleavage of the substrate by the protease variant
Settings: temperature: 34 °C; time window: 0-4 h after rhamnose induction
Experimental: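 In vivo DNA recorder in E. coli TOP10(DE3) ΔrhaA at 34 °C. Each TEVp single-site mutant (parent TEVp 0) is paired with a single-site variant of the 7-mer TEVs (canonical ENLYFQ|S). The substrate sits between flexible linkers in a Bxb1-sfGFP-TEVs-SsrA fusion, so cleavage stabilises Bxb1 and speeds flipping of a recombination array, read by NGS. The value is the raw area under the fraction-flipped curve over 0-4 h after rhamnose induction (AUC4h), with ≥20 reads per time point. It is not background-subtracted; inactive controls average about 0.047.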
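Further: Bxb1 expression induced with 0.2% (w/v) L-rhamnose at OD600 near 0.5, cultures sampled hourly, flipped fraction per protease–substrate barcode pair counted by paired-end Illumina sequencing.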

Variant	area with substrate ENCYFQS	area with substrate ENDYFQS	area with substrate ENEYFQS	area with substrate ENFYFQS	area with substrate ENMYFQS	area with substrate ENQYFQS	area with substrate ENSYFQS	area with substrate ENTYFQS	area with substrate ENVYFQS	area with substrate ENYYFQS	area with substrate ENGYFQS	area with substrate ENIYFQS	area with substrate ENNYFQS	area with substrate ENWYFQS	area with substrate ENHYFQS	area with substrate ENAYFQS	area with substrate ENKYFQS	area with substrate ENPYFQS	area with substrate ENRYFQS
L61V	0.0792	0.0618	0.0571	0.057	0.0802	0.093	0.0599	0.0641	0.0757										
F218Y	0.0746		0.0585				0.0421			0.0769									
N206K	0.0475		0.0613				0.0342				0.0816								
K100A	0.0675	0.0538	0.0644			0.0552	0.0615		0.0602		0.0786	0.123	0.0539	0.0438					
F173R	0.063		0.0784	0.102		0.0426	0.0765	0.0572		0.0829			0.0636		0.065				
P228C	0.0725	0.0562	0.0481	0.0665	0.0738	0.0567	0.0644	0.0668	0.0898	0.0428	0.0377		0.061	0.0582	0.0601	0.091	0.0634	0.0538	
P228E	0.0652		0.0191			0.055	0.0634	0.0644	0.0778						0.0601	0.0596		0.0568	
P228D	0.078	0.0859	0.0579	0.0618		0.0813	0.072				0.0531				0.0537	0.0564			
P228A		0.0665	0.0608			0.0622	0.043		0.0788							0.0489			0.0356
I84P	0.0176	0.0267	0.0367			0.0366			0.0268	0.0376									
T233C		0.0631	0.0625	0.0523		0.0635	0.0599	0.0658		0.0662	0.0552	0.0951			0.0663	0.0596	0.0644	0.0662	0.0479
V126L	0.0674	0.0574		0.0525			0.0587		0.0932					0.0614				0.053	
S158R	0.0692	0.0404	0.0528		0.0605	0.048		0.0552	0.0465		0.0587		0.0294						
T72Y	0.0636	0.0498	0.0607	0.0541	0.071	0.0666	0.0722	0.0592	0.0664	0.0408	0.0623	0.0661	0.0513					0.0657	0.065
P93Q	0.0754	0.0507	0.054			0.0572	0.0669		0.0753					0.0791				0.0698	0.0586
I86A	0.0594	0.0547	0.0505	0.0397		0.0528	0.0587	0.0558	0.0643				0.0566	0.0462	0.05				0.0534
F187L	0.0547	0.0562	0.0529		0.0747	0.0577	0.0661	0.0659	0.118	0.057		0.124	0.0627	0.0398	0.0537		0.0606		0.0696

From the supplement of paper PMC12217912
